Measured values published in the supplement of paper PMC10126150.
Sequences with one replicate were seen in a single cluster, so their values are uncertain.

Test system: ATP
Assay: switch fluorescence ratio, 500 uM ATP over buffer (Cy3 cluster intensity, sum of 5 cycles each) (fold (ratio)); higher = stronger signal-on switching upon ATP binding; sequences stand for … in TCGTCGGCAGCGTCAGATGTGTATAAGAGACAGTTTTTTTTTTTTTTTTTTTTTTTTT…TC
Settings: aptamer strand: ATP DNA aptamer (quencher-CACCTGGGGGAGTATTGCGGAGGAAGG + anchor), 100 nM annealed; ATP concentration: 500 uM; one replicate
Outline: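 Clusters carrying Cy3-labelled switching strands on a modified Illumina MiSeq flow-cell were annealed to 100 nM quencher-labelled ATP aptamer and imaged in selection buffer. They were imaged again after 15 min with 500 uM ATP at 22 °C, over five buffer/ATP cycles with NaOH stripping and re-annealing in between. For each cluster, the fluorescence ratio is the summed Cy3 intensity of the target cycles divided by that of the buffer cycles, averaged per switch-domain sequence. Clusters outside 100-1000 RFU were left out.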
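Further: ATP exposure 15 min at 22 °C before imaging.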

| Sequence | switch fluorescence ratio |
| --- | --- |
| GAGGAAGATG | 0.951 |
| TTTGGGCGTT | 1.02 |
| AGCCCGCTGT | 1.09 |
| GATGATAGGA | 1.02 |
| GCGTTATCGT | 0.993 |
| CACCTTGGGT | 1.03 |
| TGGCTGATGG | 0.98 |
| AAGCATATG | 1.02 |
| TTTACTAGCC | 1.03 |
| TTTCGATAAT | 1.01 |
| CCAAAAACCT | 1.36 |
| AGATAAGAAA | 1.03 |
| TTTCTTGGCA | 1.01 |
| CGCGCCCTGC | 1.08 |
| CGGAATGCTT | 1.14 |
| TTAATTGTG | 0.96 |
| TAAGGGTCT | 0.982 |
| TTATACATGA | 1.02 |
| ACAACATATT | 0.986 |
| TGCCTTGTCT | 1.04 |
| GCCATAGTG | 1.04 |
| AGTAGCGTTC | 1.04 |
| CTGAGATGCT | 1.01 |
| CTTCAGATTG | 0.996 |
| CAACACAGTG | 1.04 |
| GTGTCTGTAC | 1 |

| Sequence | switch fluorescence ratio |
| --- | --- |
| ATGAACTACC | 1.09 |
| ATCCTATTCA | 1 |
| CAGAACTAGA | 1.01 |
| GGTTGTCGCA | 1.13 |
| GTTATAGGTA | 1.01 |
| GCCATTCTAA | 0.974 |
| TGGACTGTTG | 0.969 |
| ACTTGCGGAG | 1.08 |
| ATTCAGGCGT | 0.986 |
| CGACAAGCAT | 1.84 |
| CACCTCTAAG | 0.998 |
| TCTATGTAC | 1.14 |
| CCTCGACCG | 1.03 |
| GCCTACCGCA | 2.25 |
| GAGTACGAAA | 1.01 |
| ACGTAGTGTG | 1.04 |
| GCGGCAAGAA | 1.06 |
| AGGTTGAA | 1.05 |
| TAAATAGCTC | 1.03 |
| AAAATGCCAG | 0.97 |
| CGGGTGCCGC | 1.04 |
| GTTTGGGCG | 0.988 |
| TCTCAACTCG | 1.04 |
| CTTCAGGCTT | 0.94 |
| GCCTTTCTCC | 3.65 |
| GGTACCGTTT | 1.01 |

| Sequence | switch fluorescence ratio |
| --- | --- |
| ACGCCGCCTG | 1.15 |
| ATATTACCCG | 1.01 |
| GTTCTCAAGT | 0.972 |
| AACTGCCGGT | 1.03 |
| AACCAGCTAC | 2.03 |
| TTTGGGCCGG | 0.959 |
| ATGGTCTGAG | 0.988 |
| TTAAGGAACC | 0.969 |
| CGAAGGAGTC | 1.01 |
| GTAGGCCATA | 1.03 |
| CAGCCTATAA | 1.04 |
| GATGCGATAG | 2.47 |
| CGCTGTATGA | 0.988 |
| GGTGGTGGTG | 1.01 |
| ATGACTGGCC | 1.01 |
| AACATTGCGG | 1 |
| CCAAATCGGG | 1.01 |
| TGAGGGCC | 0.996 |
| TGGAGCCCCT | 0.964 |
| AGCAGACTTC | 1.07 |
| TTCTCGAGCG | 1.05 |
| TTCAAAGTAA | 1.02 |
| TCACACAATC | 1.19 |
| CGTACCCGTA | 0.999 |
| CGGTCAGTGA | 1 |
| ATTACAGATG | 1.04 |

| Sequence | switch fluorescence ratio |
| --- | --- |
| CAGTCAGAAC | 0.995 |
| CGTTCGTTAG | 1.02 |
| AAATCTACT | 1.05 |
| AGGCGGATAT | 0.99 |
| AGGCCTGC | 0.973 |
| CCTGAAATCG | 1.08 |
| TGAGTAGGT | 0.972 |
| CAGAGGTAAA | 1.01 |
| GACTTATTTG | 0.995 |
| CGGTATAGGG | 1.02 |
| TACGCGACC | 1.23 |
| AGTGGGTCTT | 0.965 |
| AAACCTGCCG | 1.23 |
| TTTTGGATG | 1.02 |
| CAAAGTCTGA | 1.01 |
| ATTCAGTGGG | 0.982 |
| CGTATCAAGT | 1.01 |
| CACTTACTTT | 1.22 |
| GCTTCTAATA | 1 |
| CGCTGGTCTG | 0.972 |
| GAAAAAGTG | 0.991 |
| CGTGAGTCTG | 1.01 |
| GGCAGAGGTT | 0.958 |
| CTCGTATAGC | 1.03 |
| AGCGCTCAAA | 0.985 |
| TGGGGCACGA | 1.01 |

| Sequence | switch fluorescence ratio |
| --- | --- |
| TAGCTGGA | 1.03 |
| AAACTCTATC | 1.03 |
| CAAACATCT | 0.953 |
| TAGGGCTGT | 0.973 |
| CAGATAGGGC | 0.992 |
| TCCATACAGT | 1.01 |
| GTGTATGG | 0.968 |
| GCTCCTGGAC | 1.76 |
| AACTAAAGGA | 1.01 |
| ACAAGGGGAG | 1.07 |
| CCGGAAGAGT | 1.28 |
| TCCTAGGTG | 4.96 |
| CCGCCGGCG | 1.02 |
| TATTCAGGCT | 1.05 |
| ACTTCCTTAG | 1.22 |
| TTCCGGTATG | 1.03 |
| GTGTTAGGAG | 1 |
| TTACTTTTTA | 0.994 |
| GTCATAAGGT | 0.986 |
| GGGTTTGCGC | 0.976 |
| TTGCTAGGCC | 0.979 |
| TACACGGTA | 1.12 |
| AGCAGCCAGA | 0.98 |
| TGATTATAAA | 1.04 |
| TTTGGAGTAG | 1 |
| TAGATAAACA | 1.01 |

| Sequence | switch fluorescence ratio |
| --- | --- |
| GAGATCGACT | 0.98 |
| TCCGCTAGTT | 1.65 |
| AGCTTAGGAA | 0.998 |
| TCCGGGGGTT | 0.948 |
| ATAAGGAACT | 1.01 |
| TACGCGCAGA | 1.04 |
| ATCGGTTTCG | 0.946 |
| CAGGGCTAAT | 0.996 |
| GTCCTGCGAA | 1.07 |
| CTATGTGCGG | 1.01 |
| TAAAAACCCC | 1.05 |
| ATAGAGACAC | 1 |
| TTTTAAGC | 1.01 |
| CCTGGCCCGT | 1.06 |
| AGTATACTGC | 0.969 |
| GGCCGATACC | 1.07 |
| GGCTATCAGA | 0.955 |
| ATGAGCGTGT | 0.994 |
| TGAAACGTCG | 0.979 |
| CTGCAGCTCG | 1.17 |
| GATTGATTCT | 0.974 |
| ACGGGGAATT | 1.11 |
| TTTCTCTGGA | 1.08 |
| TTGATTGTGT | 1.09 |
| ATTGCCATAA | 0.984 |
| AATATGGCGG | 0.985 |

| Sequence | switch fluorescence ratio |
| --- | --- |
| ATATGGTTTA | 1.01 |
| GTGTCCCATT | 1.05 |
| AAGGGCTTGT | 1.02 |
| TTACTCAATC | 1.08 |
| TAAACCGAGT | 1.19 |
| GATGGGAAGA | 1.01 |
| TTCAATTACT | 1.01 |
| AATCCTAGGC | 1.04 |
| TAATAGCAAT | 2.53 |
| AGGTGCTACT | 1.03 |
| GTTAGCAGAA | 1.02 |
| GACAAATCGG | 0.979 |
| ATATTGCTC | 1.18 |
| AGTAGCCTGG | 1.03 |
| AAACACCCGG | 1.11 |
| GGCGAGAGTA | 0.944 |
| AGGTAGCTAT | 1.01 |
| ACGCATTCTG | 1.14 |
| CGAGCGTGAC | 1.44 |
| GTCTATTCGG | 1.03 |
| TATCCGCTGT | 3.24 |
| TCTGAATTAG | 1.06 |
| CAATTCCCTG | 1.04 |
| CGCCGTGCTT | 1.03 |
| TTAATACCAC | 1.05 |
| GGCGCCCGTG | 0.948 |

| Sequence | switch fluorescence ratio |
| --- | --- |
| TGGGGAGCAG | 0.994 |
| CCACGGTCTC | 1.02 |
| GCCAGAAACG | 1.01 |
| TGAGGCTGAA | 0.959 |
| AACGTACAAG | 1.41 |
| AGAATATCTG | 1.04 |
| TAATTCAAGA | 0.967 |
| TCTGCGCTAG | 1.17 |
| GCACTTTAGA | 1.01 |
| GGTCCTATCC | 0.99 |
| GCGTGCACTT | 1.03 |
| TAAAATGCCT | 1.12 |
| TCATATGACA | 1.01 |
| TGGGCGGGCT | 0.984 |
| CAGTTACTAG | 0.993 |
| AAGTAGCAAA | 1.25 |
| AGGGCTGGTG | 1.01 |
| GTCATAGAAG | 0.995 |
| TATTTCGCGC | 1.14 |
